About 340 (0.77%) of roughly 44,000 compounds were called active. Not shown: some 5% with an inconclusive outcome. Calls come from the whole dose curve; as a rule, active = well fitted inhibition curve with a large enough effect; inconclusive = small, poorly fitted or top-dose-only effect; inactive = flat fitted curve, though single readings scatter. Some of the results follow.
test: Acumen qHTS Assay for Inhibitors of the mTORC1 Signaling Pathway in MEF (Tsc2-/-, p53-/-) Cells: Sytravon; settings: phospho-rpS6 immunofluorescence/PI, 24 h; series mostly up to 38.3 µM; activity change, negative = inhibition: at the top concentration; note: nearly all actives have a fitted effect of over 50% in size;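 for activity change, negative = inhibition: plate controls were DMSO for no effect and rapamycin for full effect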
Method in brief: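 Immunofluorescence of rpS6 phosphorylation in Tsc2-/-, p53-/- MEFs after 24 h compound exposure, normalized to propidium iodide signal. Activity is expressed as % positive cells, thresholded with 7.5 nM rapamycin.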
Potency is the fitted concentration of half-maximal effect.

Activity change, negative = inhibition, inactive:
Cc1cc(F)ccc1NC(=O)c1c(C)oc2c1C1=NCCN1C=N2 -4.67%
COc1ccc(-c2cc(C(=O)Nc3cnn(Cc4ccc(F)cc4)c3)no2)cc1OC -18.9%
CCc1ccccc1NC(=O)CSc1nc2c(c(=O)[nH]1)CN(Cc1ccccc1OC)CC2 3.18%
COc1ccccc1-n1c(=O)n(C)c2c(C(N)=O)nc(-c3cc(OC)c(OC)c(OC)c3)nc21 -4.43%
Cc1cc(C)c2c(N)c(C(=O)Nc3ccccc3C(F)(F)F)sc2n1 5.25%
COc1cc2c(cc1NC(=O)C(C)Oc1ccccc1)oc1ccccc12 (stereo not drawn) -17.9%
COc1ccc(OC)c(NC(=O)COCc2cc(-c3ccc(F)cc3)on2)c1 4.52%
CCC1CN(C(=O)Nc2cc(Cl)ccc2C(=O)OC)c2ccccc2S1 (stereo not drawn) -6.27%
Cc1ccc(N2C(=O)N(Cc3cccc(Cl)c3)c3ccccc3S2(=O)=O)cc1 -2.06%
Cc1ccc(C)c(Cn2c(=O)n(CCCC(=O)NCc3ccc4c(c3)OCO4)c(=O)c3sccc32)c1 -16.4%
CCCSc1ncc(Cl)c(C(=O)N2CCN(c3ccc(OC)cc3)CC2)n1 6.92%
CN(C(=O)c1nn(C)c2c1CS(=O)(=O)c1ccccc1-2)c1cccc(Cl)c1 3.36%
CCOC(=O)c1ccc(NC(=O)c2c(NCc3cccc(OC)c3OC)sc3c2CCC3)cc1 -7.59%
CCC(C)c1ccc(OCC(=O)Nc2ccc(-c3nc4ncccc4o3)cc2)cc1 (stereo not drawn) 5.04%
CC(C)Oc1ccc(C(=O)N2CCCCC2CCN2CCCCC2)cc1 (stereo not drawn) -5.76%
CCCOc1ccc(CNC(=O)c2cc3ccccn3n2)cc1 -5.4%
CCOC(=O)c1sc(N2C(=O)c3oc4ccc(F)cc4c(=O)c3C2c2ccc(O)cc2)nc1C (stereo not drawn) -3.14%
Cc1ccc(/C=C/c2onc(C)c2S(=O)(=O)N2CCC(C(=O)N(CCC(C)C)Cc3ccco3)CC2)cc1 1.07%
COc1ccc(N2CCN(CCCNC(=O)c3ccc4nc(N5CCCCC5)sc4c3)CC2)cc1 0.321%
CCc1cccc(NC(=O)CCNS(=O)(=O)c2ccc3c(c2)CCN3C(C)=O)c1 0.279%
COc1ccccc1NC(=O)Cn1c(=O)n(-c2ccc(C)cc2)c(=O)c2c1cnn2C 3.79%
CCOc1ccc(NC(=O)c2oc3ccccc3c2NC(=O)c2cc3ccccc3o2)cc1 -0.452%
Cc1ccc(N2C(=O)CSC23C(=O)N(CC(=O)Nc2ccccc2F)c2ccccc23)cc1C (stereo not drawn) -1.19%
Cc1ccc(CNC(=O)c2ccc(CS(=O)(=O)c3ccccc3C)o2)cc1 -1.03%
CCOC(=O)CSc1nc2cc3c(cc2c(=O)n1CCCCCC(=O)NCc1ccc(OC)cc1)OCO3 -0.859%
CN(C)c1ccc(CNC(=O)c2ccc3nc(CCc4ccccc4)oc3c2)cc1 -7.08%
COc1ccc(-n2nc(C(=O)Nc3cccc(Cl)c3)c3c4ccccc4n(C)c3c2=O)cc1Cl -0.999%
O=C(Nc1ccc(Br)cc1)c1cccc(S(=O)(=O)N2CCc3ccccc32)c1 9.23%
CC(C)(C)c1ccc(-c2nnc(-c3ccccc3NC(=O)c3ccc(F)cc3F)o2)cc1 -0.623%
CCCCCCC1CCC(C(=O)NC(C(=O)O)C(C)C)CC1 (stereo not drawn) -2.08%
O=C(CSc1oc(-c2ccco2)nc1S(=O)(=O)c1ccc(Cl)cc1)Nc1ccc(F)cc1 6.26%
CC(C)c1ccc(NC(=O)CSC2=Nc3ccccc3C3=NC(CC(=O)NC4CCCCC4)C(=O)N23)cc1 (stereo not drawn) -1.56%
COc1ccc2c(Sc3ccc(Cl)cc3)c(C(=O)N3CCCCC3)[nH]c2c1 -10.1%
COc1ccc(-c2nc3ccccc3n3c(-c4ccccc4)c4c(=O)n(C)c(=O)n(C)c4c23)cc1 -8.62%
Cc1ccc(CNC(=O)CSc2c(C(C)C)cnc3c2c(=O)n(C)c(=O)n3C)cc1 -0.603%
O=C(CSCc1ccc(F)cc1)NCc1ccc(F)cc1 -2.25%
Cc1cccc(CC(=O)N2CC(=O)Nc3ccc(F)cc3C2c2ccccc2)c1 (stereo not drawn) 4.29%
COc1cc(NC(=O)CCCc2nnc3n(C)c(=O)c4sccc4n23)cc(OC)c1OC 2.45%
CCc1ccccc1NC(=O)Nc1ccc2snnc2c1 1.1%
CCC(CC)C(=O)N1CCc2cc(OC)c(OC)cc2C1COc1ccc(F)cc1 (stereo not drawn) 11.1%
Cc1cccc(-n2ncc(C(=O)NCc3ccc4c(c3)OCO4)c2C2CCN(C(=O)OC(C)(C)C)CC2)c1 2.65%
O=C(CSc1nc(Nc2ccc(F)c(F)c2)c2ccccc2n1)c1ccc(Cl)cc1 0.59%
CC(C)(C)OC(=O)N1CCC(c2c(C(=O)NCCN3CCOCC3)cnn2-c2ccc(F)cc2F)CC1 -8.12%
CCc1ccc(NC(=O)CN2C(=O)CC(c3ccccc3)Sc3ccccc32)cc1 (stereo not drawn) 0.829%
COc1ccc(-c2cccc(NS(=O)(=O)c3ccc(NC(C)=O)cc3)c2)nn1 -7.79%
CCOc1ccccc1Nc1nc2c(S(=O)(=O)c3ccc(C)cc3)nnn2c2ccsc12 -2.72%
Cc1ccc(-c2nc3scc(CCNS(=O)(=O)c4ccc(Oc5ccccc5)cc4)n3n2)cc1 -8.75%
CCc1cccc(C)c1NC(=O)CN1C(=O)c2cccc3cccc1c23 -14.3%
CCCCCNC(=O)C1CCC(Cn2c(=O)c3sccc3n(CC)c2=O)CC1 (stereo not drawn) -2.03%
Cc1ccc2nc(CSc3nnc(NC(=O)c4ccc(C(C)(C)C)cc4)s3)cc(=O)n2c1 10.8%
CC(=O)Nc1ccc(NC(=O)c2ncoc2-c2ccco2)cc1 0%
CCOc1cc(/C=C(\C#N)C(=O)Nc2ccc(OC)cc2)ccc1OCc1cc(=O)n2nc(CC)sc2n1 1.26%
Cc1ccc(CN2C(=O)C3(c4ccccc42)N(c2ccc(C)c(Cl)c2)C(=O)CS3(=O)=O)cc1 (stereo not drawn) -21.2%
CCc1nc2sc3c(N4CCCCC4)ncnc3c2c2c1CCCC2 -16.1%
COc1cccc(/C=C(\C#N)C(=O)Nc2ccc(NC(C)=O)cc2)c1OC 6.46%
COc1ccc(NC(=O)CSc2cn(CCNC(=O)c3ccc(OC)cc3)c3ccccc23)cc1 -4.19%
Cc1oc(-c2cccc(Br)c2)nc1Cn1c(SCc2cccc(F)c2)nc2cccnc21 1.75%
O=C(CCC1N=C2c3ccccc3N=C(SCc3cccc(Cl)c3)N2C1=O)NCCc1ccccc1 (stereo not drawn) -0.217%
COc1ccc(NC(=O)CCS(=O)(=O)c2ccc3c(c2)n(C)c(=O)c(=O)n3C)cc1Cl -4.84%
COc1ccc(Br)cc1CNC(=O)CSc1n[nH]c(-c2ccccc2)n1 -1.1%
CCC(C)[C@H](N)c1nnc(SCc2ccc(Cl)c(Cl)c2)o1 (stereo partly drawn) -3%
CC1=C(C(=O)Nc2ccccc2)C(c2ccc(O)cc2)n2nc(-c3ccc(Cl)cc3)nc2N1 (stereo not drawn) 9.68%
Cc1ccc(S(=O)(=O)NCCSc2nnnn2-c2ccccc2)cc1 6.44%
COc1ccc2c(c1)NC(c1ccc(Cl)cc1)=NC(c1cccs1)=N2 2.69%
CCn1c(CN2CCCCC2)nc2cc(NC(=O)COc3ccc(C(C)(C)C)cc3)ccc21 -5.46%
CC(C)(C)c1ccc(-c2nnc(-c3ccccc3NC(=O)c3cccc(C(F)(F)F)c3)o2)cc1 -3.51%
Cc1ccc(C)c(Cn2c(=O)n(Cc3ccccc3)c(=O)c3sc4ccccc4c32)c1 0.0743%
Cc1ccc(/C=C/c2onc(C)c2S(=O)(=O)N2CCC(C(=O)NCc3ccco3)CC2)cc1 -11%
Cc1ccc(CCNC(=O)c2ccc3c(c2)N(Cc2cc(C)ccc2C)C(=O)c2ccccc2S3=O)cc1 (stereo not drawn) 1.84%
COc1ccc2c(c1)NC(c1ccc(F)cc1)=NC(c1ccc(F)cc1)=N2 -4.36%
CCOC(=O)c1cccc(NS(=O)(=O)c2cc(Br)cc3c2N(C(=O)C2CC2)CC3)c1 0%
COC(=O)c1ccc(OCC2c3cc(OC)c(OC)cc3CCN2C(=O)c2cccc(C)c2)cc1 (stereo not drawn) -7.77%
COc1ccc(NC(=O)C2CCN(C3=NS(=O)(=O)C(c4ccc(C)c(C)c4)=C3C)CC2)cc1OC 0.258%
COc1cccc(N2CCN(C(=O)CN3CCSc4ccc(S(=O)(=O)N(C)C)cc43)CC2)c1 10.9%
COc1ccc(CNC(=O)CCS(=O)(=O)c2cc(Br)cc3c2N(C(=O)C2CC2)CC3)cc1 -10.5%
COc1cccc(CNC(=O)Cn2c(=O)n3nc(-c4cccc(C)c4)nc3c3ccccc32)c1 0.215%
CCCCN(Cc1ccccc1)S(=O)(=O)c1ccc2c(c1)CCN2C(=O)C1CCC1 -10.3%
COc1ccc(Nc2ncnc3onc(C)c23)cc1Cl 6.41%
CCCSCCCNC(=O)C1CCCN(C(=O)c2cnn(-c3ccccc3)c2-n2cccc2)C1 (stereo not drawn) 0.569%
O=C(Cn1nc(Cc2cccnc2)c2ccccc2c1=O)N1CCN(c2ccc(F)cc2)CC1 -24.6%
CCN(C(=O)C(NS(=O)(=O)c1cccc2nsnc12)c1ccccc1)c1ccccc1 (stereo not drawn) 3.98%
COc1ccc(-c2ccnc3c2c(=O)n(C)c(=O)n3C)cc1OC -0.0535%
COCCCNC(=O)CCCN1C(=O)CCn2nc(-c3cn(C)c4ccccc34)cc21 7.18%
Cc1ccc(C)c(N2CCN(CCCNc3ncnc4onc(-c5ccc(Cl)cc5)c34)CC2)c1 6.28%
Cc1ccc(NC(=O)[C@H](CSCc2ccccc2)N2Cc3ccccc3C2=O)cc1 -9.75%
COc1ccc(OC)c(CNC(=O)CCS(=O)(=O)c2ccc3c(c2)oc(=O)n3C)c1 -1.51%
Cc1cc(C)c(NC(=O)CN2C(=O)c3cccnc3Oc3ccc(Cl)cc32)c(C)c1 -7.95%
Cc1cc(Nc2ccc(C)c(Cl)c2)n2nc(-c3ccccc3)nc2n1 -2.25%
Cc1ccc(C(=O)N2c3nc(-c4ccco4)nn3C3(CCCCC3)[C@@H]3CCCC[C@@H]32)cc1 1.68%
CC1CCN(S(=O)(=O)c2cccc(C(=O)NC3CCS(=O)(=O)C3)c2)CC1 (stereo not drawn) -13%
COc1ccc(-c2nc3cc(NC(=O)COc4ccc(F)cc4)ccc3o2)cc1 -9.67%
Cc1csc2nc(-c3cccc(NC(=O)c4ccc(S(N)(=O)=O)cc4)c3)cn12 5.39%

Potency, active:
CCCN1C(=O)C(Cc2nc3ccccc3c(=O)n2CC)c2cc(Br)ccc21 (stereo not drawn) 14.7 µM
